The supplement of paper PMC11417369
The other results are listed elsewhere or left out.

test system: PfHDP1 homeodomain (GST-tagged); assay: gcPBM binding intensity (ln(normalized median fluorescence intensity)); higher = stronger DNA binding
Method in brief: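 GST-fused DNA-binding domains of P. falciparum, expressed in E. coli, were applied at about 25 μg on average for 1 h to an Agilent 4 × 180k array of primer-extended double-stranded 36-bp intergenic genomic probes and negative controls. Binding intensity is the highest Masliner-normalised natural-log median intensity across replicate spots of either probe orientation, measured with Alexa488 anti-GST antibody and a 488 nm scan.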

| Sequence | gcPBM binding intensity (ln) |
| --- | --- |
| AAAATAAATATGAACACACACATTTATGCCTTTAAA [CACACA_site1271] | 6.23 |
| TATATTATTTATTTTTGTACATATTATGAATGAATA [XGTACX_site3971] | 6.74 |
| CTTCCTTCTAAATGCACACGGAAAGTATAAATGTAT [CACACA_site2501] | 8.78 |
| TTACCTTTAAATGGATGTACAGAAATTTAAATTGTT [XGTACX_site7044] | 6.43 |
| TAGAAATATATAAATTGTACATGTTTGTATAATATA [XGTACX_site2097] | 6.44 |
| CCTCTTAATATGTGCACACTAAATTATAACATAATT [CACACA_site3259] | 11.3 |
| GGTTAACATAAATATATACACACCAATGATGGCATT [CACACA_site1568] | 6.51 |
| TGAAAAGTAAAATACACACACATAATCTAATTTATA [CACACA_site7024] | 6.47 |
| TATATTATTTATTAGACACACATTATTAATATATTT [CACACA_site1078] | 6.49 |
| TGGATTTTGTATTAATGTACATATATATATATATAT [XGTACX_site4442] | 9.33 |
| CAGATAGACTTATATGCATGCATTCACATACCAACA [TGCATGCA_site163] | 6.92 |
| AACAACATTTTGTAATGTACATATTTACTTATATTC [XGTACX_site7251] | 6.06 |
| AAGGATTATTTTAATCGTACATGTGTAAATAATATA [XGTACX_site6177] | 6.84 |
| TTTTTTCATTTTTTATTTTTTTATTTTTTACATATT [GTGCAC_negctrl_site137] | 6.47 |
| TTTTTTAAAATAATAGGTACACATAAAAAAAAAAAA [XGTACX_site2517] | 6.64 |
| AATGATGTTGTATTGTTTCGATATAACATCTAATTT [GTGCAC_negctrl_site309] | 5.97 |
| TATATATATAGACACACACACATATAAATAAATAAA [CACACA_site444] | 7.26 |
| TTATTTATTTTCATATGTACTTATTTATAGAGGTTG [XGTACX_site5599] | 6.79 |
| CATACATACATACATACACACATATATATATATATG [CACACA_site1995] | 7.63 |
| TTTTTCCCCCTTTTTTTGATTTTTATCTTAATTCTA [TGCATGCA_negctrl_site287] | 5.85 |
| ATATAATAACAAAAGGTGCGCATTAAGACAAAAAAA | 8.23 |
| TATTATATTGTTCATTTACACTTTCATTTTAAAAAA [CACACA_negctrl_site260] | 6.62 |

| Sequence | gcPBM binding intensity (ln) |
| --- | --- |
| CGCACTAAAAAACACACACACACACCCATATATATA [CACACA_site4152] | 7.19 |
| TGTGTATTATAAACATGTACATAAAAATACGATATT [XGTACX_site3643] | 6.84 |
| AAAAAAAAATAATATACACACTCCAATATAAAAAAT [CACACA_site3958] | 6.8 |
| ATTTTTTTTTTTTTTTTTTTTTTTTTTTAATCTGGA [CACACA_negctrl_site1347] | 5.78 |
| ATATTTAACAGGTTAAAAATATAAACAAATAAATAA [CACACA_negctrl_site907] | 6.36 |
| GAGAGGATAGTTCACAGTACTCAGTAACTCTACGGA [XGTACX_site4875] | 6.18 |
| TGTTATTAAAATATAGTGCATAATTAACCATTATAA [GTGCAC_site9594] | 8.69 |
| CACACGCACGGACACACACACATATAAAATCTATAT [CACACA_site6428] | 7.73 |
| TACTTATATACACATGTATATTATATATATAATATA [XGTACX_negctrl_site335] | 7.12 |
| TAATAATATATTTGTAGTACACAATTTTTTATAACT [XGTACX_site3951] | 6.34 |
| TACTATAACAGACATACACACAAAAAAAAAAAAAAA [CACACA_site538] | 6.29 |
| TTTCATATATATGAAACACACAAAGGAAAAAAAATT [CACACA_site4144] | 6.92 |
| ATATAATAAAATTAATGTACATATATGTATTATATA [XGTACX_site3283] | 6.52 |
| GCTCATATGACAACAACACACAAAAAAATAAAATGA [CACACA_site714] | 6.84 |
| AACATAATCTCATATACACACAAAAATATTGAAATA [CACACA_site7085] | 6.48 |
| ACAAGTTTATTTGTTGCACACATATAAGTAGAGAAA [CACACA_site8994] | 9.49 |
| AAAAAAAAAAAACACACACACATAGACCTCCAATAG [CACACA_site3562] | 6.92 |
| AATAAATAAATAAATAAAACAAAGGGATTACATACA [TGCATGCA_negctrl_site513] | 6.64 |
| CACAACATATATATATATATATATATATATATGTGT [CACACA_negctrl_site28] | 8.13 |
| ATATTTTGTTATGTAGATGTTGGTAGGAATTTTGGT [CACACA_negctrl_site1104] | 6.63 |
| TACTTTTTAGGAAAGTGTACAAGCATATAAGGAATA [XGTACX_site2834] | 6.83 |
| TTAAAAAAATATTGAAGTACACACATTATAAACTTT [XGTACX_site3548] | 6.33 |

| Sequence | gcPBM binding intensity (ln) |
| --- | --- |
| TATATTTGTTAATTTTGTACGTATGGATATACATAA [XGTACX_site5100] | 6.55 |
| TATAAATATAGAATTACACACAATGTTCTATAAATA [CACACA_site7508] | 6.16 |
| AGGTAGAAAAAAGACACACACATTATATATATATAT [CACACA_site4367] | 9.17 |
| TAATATAAAGAAATATCAATAATTTGGGCAAATGCC [GTGCAC_negctrl_site621] | 6 |
| ATATGCTACATTATATGTACACACATATACATATAT [XGTACX_site1656] | 7.15 |
| AAGGTGGTTATTAAATGTACACAGACATATACAAAA [XGTACX_site3007] | 6.77 |
| TTTTATGCATGTGAAGTGCAAAATAAAAAATAAAAT [GTGCAC_site9612] | 9.13 |
| TGTTAATATATCATTATGTTATAGGTTCAGCTGGGA [CACACA_negctrl_site401] | 6.38 |
| AATATATAAATTGACACACACATATATACATATATA [CACACA_site1213] | 6.71 |
| TTTGTGGTTACATGTGCACACACTTATTTCGTTCTT [CACACA_site1435] | 9.99 |
| GATATGTTTTCCTAGGTTCATGATGATAGGTAGTTT [XGTACX_negctrl_site217] | 6.69 |
| ATATATATTAAAAATAGTACATATAATAAAAATCAT [XGTACX_site4265] | 6.57 |
| TGTATATGTTTAATTAGTACATATAAAGTAACAATA [XGTACX_site1207] | 6.51 |
| ATATGAAATATATGTAGTACACATAATTAAAAGTAG [XGTACX_site6490] | 6.74 |
| AACGATATAGGTACTACACACATTATGTCATCCTAT [CACACA_site7205] | 6.42 |
| TACATATTCCTACAAATGTATAAATTATAAATATTA [XGTACX_negctrl_site30] | 6.11 |
| AATTTTTATATAATTTAACACACATTTCATATAAAA [CACACA_site9018] | 6.49 |
| TTAGGATATTTATTTCGTACATATATTTTTAATTGT [XGTACX_site582] | 5.85 |
| TATAAATTATTTATCACACATAAAACAAAAATAAGA [CACACA_site5493] | 6.9 |
| TACTTCATATAATTAGCACACAATAATTTCTCATTT [CACACA_site2872] | 7.53 |
| AGTTATTTTATAGAATATGAATAATTTTACTTTTCA [XGTACX_negctrl_site403] | 5.79 |
| TTCATTCATTTTATTACACACAAAAAAAAAAAAAAA [CACACA_site3680] | 6.39 |

| Sequence | gcPBM binding intensity (ln) |
| --- | --- |
| AATTTCATTTTACTTATCTAATATTTATAATCTTTT [CACACA_negctrl_site636] | 6.32 |
| AAAAAAAAAGGTACTACACACTATTCTCAATAGAAA [CACACA_site6193] | 6.26 |
| TTCGTCTTTTTTCTCACACACCCTTTTTATTAAAAG [CACACA_site7225] | 7.3 |
| ATAATACAAAACACAAGTACATAAATTAAAAAGATG [XGTACX_site7839] | 7.11 |
| AAAGAATACATATATTGTACATATATATATACCGTT [XGTACX_site6250] | 6.39 |
| AGAATTAAAATAAAGGTGCATTTTTTTGTTTCATGT | 8.48 |
| AGTACGTAAATTATAATACACACTATAGGATATTCT [CACACA_site2559] | 6.51 |
| TTTTCTACATCTTGTTGTACGAAAAATAAAAAAAAT [XGTACX_site4620] | 6.61 |
| GGAATATGTATATTTTGTACGTATACATTTTTTGGG [XGTACX_site7681] | 7.17 |
| GTTATTGTAAAAAGATTACACACGTTCTATATACTT [CACACA_site2473] | 6.49 |
| GATATATTTTATATATGTACATACAGTGGTAAATAT [XGTACX_site1324] | 6.59 |
| TTTATACAAAAAAACAAAATCAAACAAAAAAAAAAA [CACACA_negctrl_site252] | 6.13 |
| TTTTAAACAGGACACACACACATATATATATATATA [CACACA_site4664] | 9.36 |
| AAAATTATATATTTTAGTACATAAAATATTGACATA [XGTACX_site2581] | 6.3 |
| ATGTAATGTTATGTTATGTTTTTTTTTTTTTTGTGT [CACACA_negctrl_site1264] | 6.24 |
| ATTTCCCCTTTTTATTGTACATTTTTATTTGTTACT [XGTACX_site4845] | 7.49 |
| AAAATATTTATGTATGCATGTTGTAATATTTCTTTA [TGCATGCA_site296] | 6.46 |
| TAAAAAAAAACAGAAACACACATTATTCATATATAT [CACACA_site2049] | 6.51 |
| TATGCTATATATTTAGTGCATATATATAACTTTTAT [GTGCAC_site9902] | 8.96 |
| TATATATGTATCATTACACACATGTATACTTATTTG [CACACA_site4138] | 6.62 |
| TGTATAAATATATATACACACATATTTATATATATA [CACACA_site755] | 7.05 |
| TACATTTGTATAAATAGTACGCGAAAACAAAAAAAA [XGTACX_site6246] | 7.02 |
